# Source: PubChem BioAssay AID504339 (National Center for Advancing Translational Sciences (NCATS), 2011)
# In all, about 390,000 compounds went through this assay and about 17,000 (4.4%) were called active. Inconclusive means that the source gave no clear call. Such entries were picked first, then a sample of the others. The call rests on the fitted dose curve; in most records, active means well fitted inhibition curve with a large enough effect; inconclusive means small, poorly fitted or top-dose-only effect; inactive means no such curve, though single readings can be large or run the other way. Potencies beside an inconclusive call are fits to weak or partial responses and may not hold up.
# Target: Lysine-specific demethylase 4A (Homo sapiens) (UniProt O75164)
# Experiment: qHTS Assay for Inhibitors of JMJD2A-Tudor Domain; further: nearly all actives have a fitted effect of over 50% in size
# Conditions: AlphaScreen JMJD2A-Tudor / H3K4me3 peptide binding; activity change, negative = inhibition: at 114 µM (top of the series)
# On the % scale 0 is the no-effect control and ±100 the full control effect; potency means the concentration at half of the fitted maximal effect; tags describe the fitted curve by direction and shape.
# Sequence of UniProt O75164 (O75164 whole entry, looked up, the tested form may be a part): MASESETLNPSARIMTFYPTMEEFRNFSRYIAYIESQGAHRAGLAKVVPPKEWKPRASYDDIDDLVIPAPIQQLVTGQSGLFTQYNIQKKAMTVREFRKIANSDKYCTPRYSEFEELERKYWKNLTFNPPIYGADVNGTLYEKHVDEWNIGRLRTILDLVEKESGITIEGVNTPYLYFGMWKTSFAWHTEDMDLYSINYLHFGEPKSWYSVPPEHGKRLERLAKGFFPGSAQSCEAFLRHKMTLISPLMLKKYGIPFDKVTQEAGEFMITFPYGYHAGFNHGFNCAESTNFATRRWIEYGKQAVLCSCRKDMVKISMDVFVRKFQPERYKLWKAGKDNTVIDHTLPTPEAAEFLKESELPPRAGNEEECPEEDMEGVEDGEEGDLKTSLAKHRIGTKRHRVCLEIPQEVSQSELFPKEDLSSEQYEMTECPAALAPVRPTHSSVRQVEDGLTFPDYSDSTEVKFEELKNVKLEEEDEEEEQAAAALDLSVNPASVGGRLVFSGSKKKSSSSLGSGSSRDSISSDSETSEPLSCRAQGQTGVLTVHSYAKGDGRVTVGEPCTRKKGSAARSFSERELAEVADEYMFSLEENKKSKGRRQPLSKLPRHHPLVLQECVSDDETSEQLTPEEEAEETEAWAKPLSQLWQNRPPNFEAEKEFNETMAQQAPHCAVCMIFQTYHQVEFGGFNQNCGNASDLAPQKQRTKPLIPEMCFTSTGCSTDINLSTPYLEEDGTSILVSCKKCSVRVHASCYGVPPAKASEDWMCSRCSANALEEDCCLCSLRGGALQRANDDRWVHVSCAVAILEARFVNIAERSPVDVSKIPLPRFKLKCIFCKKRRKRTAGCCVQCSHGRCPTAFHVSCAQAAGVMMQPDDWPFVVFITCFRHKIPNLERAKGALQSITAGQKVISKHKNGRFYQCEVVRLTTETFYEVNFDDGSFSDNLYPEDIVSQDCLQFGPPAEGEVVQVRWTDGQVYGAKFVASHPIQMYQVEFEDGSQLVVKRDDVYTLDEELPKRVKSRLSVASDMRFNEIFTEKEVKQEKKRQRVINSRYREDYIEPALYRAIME
SMILES,Potency,"activity change, negative = inhibition"
COc1ccc(N2CCN(C(=O)COC(=O)c3ccccc3OCc3ccc(F)cc3)CC2)cc1,"inconclusive: 11.2 µM [inhibitor, full curve]",–
O=C(Nc1ccc(Nc2ccccc2)cc1)c1ccccc1,"inconclusive: 56.2 µM [inhibitor, partial curve]",–
C/C(=N\OC(=O)c1cccc(C)c1)c1sc(-c2ccccc2)nc1C,"inconclusive: 89.1 µM [inhibitor, partial curve]",–
C=CCSc1nnc(NC(=O)CN2C(=O)NC3(CCCC3)C2=O)s1,–,inactive: -6.62%
Cn1cccc1/C=N/N1CCN(Cc2cccc3ccccc23)CC1,active: 31.6 µM,–
C/C(=C1/SC(=S)N(CCC(=O)O)C1=O)c1ccc(O)cc1,"inconclusive: 28.2 µM [inhibitor, full curve]",–
COc1ccccc1CNC(=O)c1ccc2c(c1)N(Cc1cccc(C)c1)C(=O)c1ccccc1S2(=O)=O,–,inactive: -22.2%
N#CCC(=O)N/N=C/c1ccc(Sc2nc3ccccc3s2)o1,"inconclusive: 100 µM [inhibitor, single point]",–
c1ccc(-c2nn3c(C4CCCCC4)nnc3s2)nc1,–,inactive: -1.66%
O=C(CSc1ncc(C(F)(F)F)cc1Cl)N1CCN(S(=O)(=O)c2ccc3ccccc3c2)CC1,"inconclusive: 25.1 µM [inhibitor, full curve]",–
Cc1cccc2sc(NNC(=O)c3ccc4c(c3)OCCO4)nc12,"inconclusive: 7.08 µM [inhibitor, full curve]",–
COc1ccc(NC(=O)/C(C#N)=C\c2ccc(Br)o2)cc1,active: 56.2 µM,–
CN(C)CCCN(C(=O)COc1ccccc1)c1nc2cc3c(cc2s1)OCCO3,–,inactive: -18.8%
CCOc1ccc(NC(=S)C(C#N)=C2N(C)c3ccccc3N2C)cc1,–,inactive: 0.343%
Cc1ccc(CNC(=O)c2ccc(OCC(C)C)cc2)n1C,"inconclusive: 56.2 µM [inhibitor, partial curve]",–
O=C(CCC1CCCN(C(=O)c2cncs2)C1)NCc1ccc(F)c(F)c1 (stereo unspecified),active: 25.1 µM,–
CC1CCN(CCc2nc3cc(NC(=O)COc4ccc([N+](=O)[O-])cc4)ccc3n2C)CC1,"inconclusive: 3.98 µM [inhibitor, single point]",–
Cc1occc1C(=O)NCc1ccc(C(=O)O)o1,–,inactive: -3.25%
Cc1ccc(Cn2nnnc2CN2CCC(O)(c3cccnc3)CC2)cc1,"inconclusive: 89.1 µM [inhibitor, single point]",–
COc1ccc(F)cc1S(=O)(=O)NCCc1c(C)[nH]c2c(Cl)cccc12,–,inactive: -32.6%
COc1ccc(OC)c(CCNC(=O)c2ccc3c(c2)N(Cc2ccc(C)cc2)CCS3)c1,"inconclusive: 3.55 µM [inhibitor, full curve]",–
O=C(CN1CCN(S(=O)(=O)c2ccc(Cl)cc2)CC1)Nc1ccc(N2CCOCC2)cc1,–,inactive: -21.4%
CCOc1ccc(N(CC)S(=O)(=O)N2CCCC(C(=O)Nc3ccc(OC)c(OC)c3)C2)cc1 (stereo unspecified),–,inactive: -27.5%
C=CCN(C(=O)c1cc(C)cc(C)c1)C1(C(=O)Nc2ccccc2)CCN(C(C)C)CC1,–,inactive: -22.4%
C1=Cc2ccccc2Nc2ccccc21,"inconclusive: 7.08 µM [inhibitor, full curve, poor fit]",–
O=C(CNc1ccc(C(F)(F)F)cc1[N+](=O)[O-])OCC(=O)c1ccccc1,–,inactive: -34.8%

SMILES,Potency,"activity change, negative = inhibition"
CC(=O)c1c(C)nn(CCC(=O)O)c1C,active: 39.8 µM,–
COc1ccc(N2CCN(C(=O)CN3CCN(c4nc(-c5ccc(F)cc5)cs4)CC3)CC2)cc1,active: 31.6 µM,–
O=C(N/N=C/c1ccncc1)c1cccc(S(=O)(=O)N2CCCC2)c1,–,inactive: -21.4%
Cc1cccn2c(=O)c(C=O)c(N3CCN(C)CC3)nc12,–,inactive: -15%
COC(=O)c1[nH]c(C)c(/C(O)=C2\C(=O)C(=O)N(CCN(C)C)C2c2ccc(C)o2)c1C (stereo unspecified),active: 35.5 µM,–
O=C1CC(c2ccc3c(c2)OCCO3)Oc2ccc([N+](=O)[O-])cc21 (stereo unspecified),–,inactive: -24.7%
COc1c(OC(C)=O)c(=O)n2c3ccccc3c3ccnc1c32,–,inactive: -14.3%
Cc1nc(SCC(=O)O)c(C#N)c(-c2ccco2)c1C(=O)N(C)C,–,inactive: -15.1%
CCOc1ccc(OCC)c(NC(=O)c2cc(CN3CCOCC3)on2)c1,–,inactive: -20.7%
Cc1nc2ccccc2nc1N/N=C/c1ccc(O)cc1O,active: 14.1 µM,–
CC1CCN(C2=C(NS(=O)(=O)c3ccc(Cl)cc3)C(=O)c3ccccc3C2=O)CC1,active: 44.7 µM,–
CCOC(=O)[C@@H]1[C@H]2COc3ccc(Br)cc3[C@@H]2N2C(=O)N(c3cccc(Cl)c3)C(=O)[C@@]12C,–,inactive: -24.3%
O=C1Cc2cc(S(=O)(=O)Nc3cccc([N+](=O)[O-])c3)cc3c2N1CCC3,–,inactive: -12.7%
CC(C)(C)Nc1nc(-c2ccc3c(c2)CCN3C(=O)C2CC2)cs1,"inconclusive: 56.2 µM [inhibitor, partial curve]",–
Cc1c(CN2CCN(CC(C)(C)C)C(CCO)C2)[nH]c2ccccc12 (stereo unspecified),–,inactive: -12.6%
O=C(O)CC(O)C(=O)O (stereo unspecified),"inconclusive: 89.1 µM [inhibitor, single point]",–
COC(=O)[C@]1(C)CCC[C@@]2(C)C3CC[C@@]4(C)C[C@]3(CCC21)CC(=O)N4Cc1ccc(OC)cc1 (stereo partly specified),–,inactive: -23.2%
Cc1cc(S(=O)(=O)N(Cc2ccccc2F)C2CC2)ccc1-n1cnnn1,–,inactive: -0.351%
CCCCNC(=O)c1nn(-c2ccc(C)cc2)c(=O)c2c1c1ccccc1n2C,–,inactive: -11%
Cc1ccc(C(=O)Nc2ncc(Cc3ccc(SC(F)F)cc3)s2)cc1,–,inactive: -7.38%
O=C(CCC(=O)c1cccs1)Nc1ccc(N2CCCCC2)cc1,"inconclusive: 50.1 µM [inhibitor, partial curve]",–
Cc1ccc(-c2nc(CS(=O)(=O)CC(=O)N3CCN(c4cccc(C)c4C)CC3)c(C)o2)cc1,–,inactive: -2.69%
CC(OCC(O)CN(C)CCOc1ccccc1)c1ccc(Cl)cc1 (stereo unspecified),active: 3.55 µM,–
COc1ccc(Cl)cc1NC(=O)CNc1ccccc1CN(C)C1CCCCC1,–,inactive: -31.2%
COC(=O)c1ccc(COc2ccc(/C=C/C(=O)c3ccc(OC)c(CSCC(=O)O)c3)cc2OC)cc1,active: 50.1 µM,–
CN1CCN(C(=S)NC(=O)c2ccc(Br)cc2)CC1,–,inactive: -16.6%

SMILES,Potency,"activity change, negative = inhibition"
CC(=O)N1CCN(C(=S)c2ccc([N+](=O)[O-])cc2)CC1,"inconclusive: 89.1 µM [inhibitor, single point]",–
COc1cc(NS(=O)(=O)c2ccc(N/C=C(\C=O)c3nc4ccccc4o3)cc2)nc(OC)n1,active: 79.4 µM,–
Cc1nc2ccccc2n1CC(=O)N/N=C\c1ccccn1,"inconclusive: 1.41 µM [inhibitor, full curve, poor fit]",–
O=C(CCS(=O)(=O)c1ccccc1)Nc1nc2c(s1)COc1ccccc1-2,–,inactive: -27.2%
CC(=O)N1CCN(c2ccc(NCc3cccc(C)c3)cc2)CC1,"inconclusive: 63.1 µM [inhibitor, partial curve, poor fit]",–
CC1(c2ccc(OC(F)F)cc2)NC(=O)N(/N=C/c2c(O)ccc3ccccc23)C1=O (stereo unspecified),"inconclusive: 63.1 µM [inhibitor, single point]",–
COCCN=C1Sc2nc3c(C)cccc3cc2CN1Cc1ccco1,"inconclusive: 89.1 µM [inhibitor, single point]",–
CC(=O)Nc1c(C)nn(-c2ccccc2)c1N1CCC(C(=O)Nc2ccc(F)cc2Cl)CC1,–,inactive: 8.77%
O=C(COC(=O)c1cc([N+](=O)[O-])ccc1N1CCOCC1)Nc1ncc(Cl)cc1Cl,"inconclusive: 44.7 µM [inhibitor, partial curve]",–
CCN1CCN(Cc2ccc(NC(=O)c3cc(NC(=O)c4nccnc4N)cc(OC)c3)cc2C(F)(F)F)CC1,"inconclusive: 56.2 µM [inhibitor, partial curve]",–
C/C(=N\Nc1ccc(Cl)cc1)c1ccccn1,"inconclusive: 44.7 µM [inhibitor, partial curve]",–
CC(=O)Nc1ccc2nc(-c3ccccn3)[nH]c2c1,active: 56.2 µM,–
CCOC(=O)c1ccc(NC(=O)CSc2c(C(C)C)cnc3c2c(=O)n(C)c(=O)n3C)cc1,"inconclusive: 89.1 µM [inhibitor, single point]",–
CCOC(=O)C1=C(C)N=c2s/c(=C3\C(=O)Nc4ccccc43)c(=O)n2C1c1ccc2c(c1)OCO2 (stereo unspecified),"inconclusive: 2.82 µM [inhibitor, full curve, poor fit]",–
COc1ccc(C(=O)Nc2cc3c(oc2=O)CCCC3=O)cc1,"inconclusive: 89.1 µM [inhibitor, single point]",–
O=C(Cc1ccon1)c1ccc(O)cc1O,–,inactive: 10.9%
COC(=O)C1=C(C)N(CC(C)C)C(=O)/C1=C\c1cccs1,active: 44.7 µM,–
Cn1cccc1Cc1nnc(SCC(=O)Nc2ccc3c(c2)OCCO3)n1CCc1ccccc1,"inconclusive: 79.4 µM [inhibitor, partial curve]",–
COc1ccc(-c2csc(Nc3ccccn3)n2)cc1OC,"inconclusive: 50.1 µM [inhibitor, partial curve]",–
S=C(NCCc1c[nH]c2ccccc12)NC1CCCCC1,active: 35.5 µM,–
Nc1c(N(CCO)C(=O)COc2ccc(Cl)cc2)c(=O)[nH]c(=O)n1Cc1ccccc1,"inconclusive: 89.1 µM [inhibitor, single point]",–
CC(NC(=O)CNC(=O)c1ccc2c(c1)OCO2)c1ccc(S(N)(=O)=O)cc1 (stereo unspecified),–,inactive: -13.2%
COc1cccc(C(=O)N/N=C2/SCC(=O)N2CCc2ccc(OC)c(OC)c2)c1,"inconclusive: 89.1 µM [inhibitor, single point]",–
O=C(COC(=O)CSc1ccc([N+](=O)[O-])cc1)NCCCc1ccccc1,"inconclusive: 39.8 µM [inhibitor, full curve]",–
